# PubChem BioAssay AID1347417 (National Center for Advancing Translational Sciences (NCATS), 2020)
# Screen size: about 120,000 compounds; about 5,300 (4.4%) were called active. Inconclusive means that the source gave no clear call. Such entries were picked first, then a sample of the others. Calls come from the whole dose curve; as a rule, active = well fitted inhibition curve with a large enough effect; inconclusive = small, poorly fitted or top-dose-only effect; inactive = no such curve, though single readings can be large or run the other way. Where the call is inconclusive, the potency comes from a doubtful curve fit.
# Experiment: qHTS Primary assay for Inhibitors of Plasmodium falciparum Dd2 growth in vitro; note: nearly all actives have a fitted effect of over 65% in size
# Conditions: P. falciparum Dd2 growth, SYBR Green, 72 h; series mostly up to 28.9 µM
# How it was run: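 Readout: SYBR Green fluorescence, 485 nm excitation, 535 nm emission, after ~16 h lysis at 37C. Before that, Dd2-infected red cells (2.5% hematocrit) grew 72 h with compound, 29 uM top final concentration.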
# Potency is the fitted concentration of half-maximal effect; tags give direction and shape of the fitted curve.
row,SMILES,Potency
1,Cc1cccc(OCCc2noc(C3CCN(C(=O)NC4CCCCC4)C3)n2)c1 (configuration not stated),inactive
2,CCn1c(=O)c2sccc2n2c(CCCC(=O)Nc3ccc(Oc4ccccc4)cc3)nnc12,"inconclusive: 10 µM [inhibitor, single point]"
3,O=C(Nc1ccc(Br)cc1)c1cc(S(=O)(=O)N2CCc3ccccc32)ccc1F,"inconclusive: 20 µM [inhibitor, single point]"
4,NS(=O)(=O)c1ccc(CNC(=O)Cn2nc3c(cc2=O)CCCC3)cc1,"inconclusive: 3.98 µM [inhibitor, single point]"
5,Cc1ccc(-c2nnc([C@H]3CCN(c4nccc(C(F)(F)F)n4)C3)o2)cc1,inactive
6,Cc1ccc2[nH]c(=O)c(CCC(=O)NCCN3CCc4ccccc4C3)cc2c1,"inconclusive: 4.47 µM [inhibitor, partial curve, poor fit]"
7,Cc1ccc(S(=O)(=O)N2CCCC(CCC(=O)NCc3cccc(F)c3)C2)cc1 (configuration not stated),"inconclusive: 12.6 µM [inhibitor, single point]"
8,COc1ccc(-c2cc(N3CCCC(NC(=O)c4ccc(C)cc4C)C3)n[nH]2)cc1 (configuration not stated),"inconclusive: 1 µM [inhibitor, full curve]"
9,O=C(CCC1CCN(c2cc(NC3CC3)ncn2)CC1)NCCN1CCCCC1,inactive
10,O=C1CCC2(CCN1)CCN(S(=O)(=O)c1cccnc1)CC2,"inconclusive: 0.141 µM [inhibitor, full curve, poor fit]"
11,CCC(c1cccs1)N1C(=O)[C@H]2CN(S(=O)(=O)c3cc(F)ccc3F)C[C@H]2C1=O (some centres not stated),inactive
12,CCCCN(CC)CCCNC(=O)c1sc2nc3n(c(=O)c2c1C)CCCCC3,"inconclusive: 10 µM [inhibitor, single point]"
13,Oc1ccc(-c2nc(C3CC3)nc3c2CCN(Cc2cccc4ccccc24)CC3)cc1,"inconclusive: 2.82 µM [inhibitor, partial curve, poor fit]"
14,O=C(Nc1ncc(Cc2ccccc2Cl)s1)c1ccc2c(c1)CC(c1ccccc1)OC2=O (configuration not stated),"inconclusive: 17.8 µM [inhibitor, single point]"
15,CNC(=O)C1CCC(Cn2c(=O)c3sccc3n(CC(=O)Nc3ccccc3)c2=O)CC1 (configuration not stated),"inconclusive: 10 µM [inhibitor, partial curve, poor fit]"
16,CC1CCc2nc3ncn(Cc4cccc(F)c4)c(=O)c3cc2C1 (configuration not stated),"inconclusive: 12.6 µM [inhibitor, single point]"
17,CN(C)c1ccc(CN[C@H]2[C@H](O)[C@@H](N3CCC(Cc4ccccc4)CC3)[C@@H]3OC[C@H]2O3)cc1,"inconclusive: 3.16 µM [inhibitor, full curve]"
18,CCc1nc(-c2c3n(c(=O)n(CC(=O)Nc4c(C)cccc4CC)c2=O)CCCC3)no1,"inconclusive: 1.26 µM [inhibitor, full curve, poor fit]"
19,CC(C)CN1CCN(C(=O)c2cc3c(s2)CCN(C(=O)c2ccc(Cl)cc2)C3)CC1,"inconclusive: 3.98 µM [inhibitor, single point]"
20,Cc1c(Cl)cc(C(=O)NCC2CNCCOC2)cc1Cl (configuration not stated),"inconclusive: 14.1 µM [inhibitor, partial curve, poor fit]"
21,COc1ccc(OC)c(CCNc2nc3cc(OC)c(OC)cc3c3nc(-c4cccnc4)nn23)c1,"inconclusive: 3.98 µM [inhibitor, single point]"

row,SMILES,Potency
1,CCCCN(CC)CCNC(=O)CN1C(=O)COc2ccc(S(=O)(=O)N3CCOCC3)cc21,"inconclusive: 7.94 µM [inhibitor, partial curve]"
2,O=S(=O)(NCC(c1ccco1)N1CCN(c2ccc(F)cc2)CC1)c1cc(F)ccc1F (configuration not stated),"inconclusive: 17.8 µM [inhibitor, partial curve, poor fit]"
3,O=C(c1cnccn1)N1C[C@@H]2OCC(=O)N(CC3CC3)[C@@H]2C1,inactive
4,O=C1CC(c2ccccc2)N(C(=O)CNC(=O)c2ccc3ccccc3n2)CCCCCCN1 (configuration not stated),"inconclusive: 4.47 µM [inhibitor, partial curve, poor fit]"
5,CC(C)(C)CCN1CCCC(COc2ccccc2C(=O)NC2CC2)C1 (configuration not stated),inactive
6,COc1cc(CNC(=O)c2cnc3c(c2)N(C(=O)Cc2ccccc2OC)CCC3)cc(OC)c1,"inconclusive: 20 µM [inhibitor, single point]"
7,COc1ncc(-c2n[nH]c3c2CC(=O)N(CCOc2ccccc2)C3)cn1,"inconclusive: 3.55 µM [inhibitor, partial curve]"
8,COc1cccc(NC(=O)c2c(C)oc3ccn(Cc4ccc(F)cc4)c(=O)c23)c1,"inconclusive: 17.8 µM [inhibitor, single point]"
9,COc1ccc(-c2nc(C)nc3c2CCN([S+](=O)([O-])c2cccc(OC)c2)CC3)cc1,"inconclusive: 10 µM [inhibitor, single point]"
10,COc1ccc2nc(N(Cc3cccnc3)C(=O)c3ccc(Cl)cc3)sc2c1,"inconclusive: 17.8 µM [inhibitor, single point]"
11,O=[S+]([O-])(Nc1cccnc1)c1ccc2c(c1)OCCN(Cc1ccccc1F)C2,inactive
12,COc1ccc(N2CCN(C(=O)c3cn(C)c4ccc(S(=O)(=O)N5CCOCC5)cc4c3=O)CC2)cc1,inactive
13,Cc1cc(Nc2cccc(Cl)c2)nc2ccc(NC(=O)Cc3c(F)cccc3Cl)cc12,"inconclusive: 12.6 µM [inhibitor, single point]"
14,Cc1ccc(-c2cc(N3CCCN(C(=O)Cc4ccsc4)CC3)n[nH]2)cc1C,"inconclusive: 2.82 µM [inhibitor, single point]"
15,CC1=C[C@@H](CNC(=O)c2ccncc2)[C@H](C(C)C)C[C@H]1Cc1nnc(-c2ccncc2)o1,"inconclusive: 5.62 µM [inhibitor, single point]"
16,CCOc1ccccc1CN1CCC2(CCN(C(=O)c3ccccc3F)CC2)Oc2ccccc21,"inconclusive: 12.6 µM [inhibitor, partial curve, poor fit]"
17,Cc1ccc(C(=O)c2cn(Cc3ccccc3)c3c(F)cc(F)cc3c2=O)cc1,"inconclusive: 12.6 µM [inhibitor, partial curve]"
18,O=C(c1ccoc1)N1CC[C@@H](c2ccc3ccccc3c2)[C@H](O)C1,inactive
19,Cc1ccc(C)c(NC(=O)[C@H]2CCC[C@H]2NC(=O)c2cnc(C)cn2)c1,"inconclusive: 5.01 µM [inhibitor, partial curve]"
20,COC(=O)[C@H](Cc1ccc(OC)cc1)NC(=O)[C@H]1CN(C(=O)c2ccc(N(C)C)cc2)CCN1C(=O)C1CCCCC1,active: 0.398 µM
21,Cc1nn(-c2ccc(C(C)(C)C)cc2)c(C)c1[C@@H]1C=C[C@@H](NC(=O)CC(C)(C)CC(=O)O)C1,"inconclusive: 10 µM [inhibitor, single point]"

row,SMILES,Potency
1,O=C1CCCCCN1C1CCN(Cc2ccsc2)CC1,active: 7.08 µM
2,COCCn1c(C)cnc1CC1CCN(C(=O)Nc2ccccc2F)C1 (configuration not stated),"inconclusive: 0.891 µM [inhibitor, full curve]"
3,C1CCC2(CC1)C(OCC1CC1)CN2C1CCNCC1 (configuration not stated),active: 3.98 µM
4,CCOc1ccc(CN2C(=O)c3ccccc3Sc3ccc(C(=O)N4CCC5(CC4)OCCO5)cc32)cc1,"inconclusive: 2 µM [inhibitor, full curve, poor fit]"
5,Cc1c(C(=O)Nc2cccc(C(F)(F)F)c2)sc2nc3n(c(=O)c12)CCC3,"inconclusive: 11.2 µM [inhibitor, single point]"
6,N[C@@H]1CCN(Cc2cccc(Oc3ccc(F)cc3)c2)C[C@H]1O,"inconclusive: 5.01 µM [inhibitor, partial curve, poor fit]"
7,O=C(Nc1cccc(C(F)(F)F)c1)N1CCCC(Cn2cnc3cccnc32)C1 (configuration not stated),"inconclusive: 11.2 µM [inhibitor, single point]"
8,Cc1cccc(N2CCN(C(=O)c3cc4ccc5cccnc5c4[nH]3)CC2)c1C,"inconclusive: 11.2 µM [inhibitor, single point]"
9,CN1CCCCCCN(C(=O)C2CC2)[C@H]2CCC[C@H]2C1=O,inactive
10,COc1cccc(CN2CCOC3(CCN([S+](=O)([O-])c4ccccc4C)CC3)C2=O)c1,"inconclusive: 17.8 µM [inhibitor, single point]"
11,O=C1CC2CCN([S+](=O)([O-])c3cccs3)CC2CCN1 (configuration not stated),inactive
12,COc1ccc(NC(=O)OC[C@H]2C[C@@H]3CCN2C[C@@H]3c2cc(-c3ccc(N(C)C)cc3)nc(C)n2)cc1,"inconclusive: 6.31 µM [inhibitor, partial curve, poor fit]"
13,COc1ccc(C)cc1NC(=O)CSc1ncc2c(n1)-c1ccc(Cl)cc1N(Cc1ccccc1)S2(=O)=O,"inconclusive: 17.8 µM [inhibitor, single point]"
14,COc1cc(NC(=O)C2CCN(C(=O)c3ncn4c3COC(c3ccccc3)C4)CC2)cc(OC)c1 (configuration not stated),inactive
15,CC(C)NC(=O)NCc1nnc2n1C(C(=O)N1CCOCC1)CC2 (configuration not stated),inactive
16,CC(=O)N1Cc2ccccc2CC2(CCN(Cc3cccnc3)C2)C1 (configuration not stated),inactive
17,CCOC(=O)N1CCN(Cc2nc3cc(NC(=O)CC(C)C)ccc3n2C(C)C)CC1,active: 11.2 µM
18,CCN(CC)S(=O)(=O)c1ccc2c(c1)N(CC(=O)Nc1cccc(C)c1C)C(=O)C1CCCN21 (configuration not stated),"inconclusive: 17.8 µM [inhibitor, single point]"
19,COCc1ccc2c(c1)c(OC(C)(C)C(=O)NCCc1ccccn1)nn2CCC(C)C,"inconclusive: 2.51 µM [inhibitor, full curve]"
20,O=C(NCC1(O)CCCCC1)C1CCN(c2nc(-c3ccccc3)nc3c2CCC3)CC1,"inconclusive: 11.2 µM [inhibitor, single point]"
